We go through 153 variants from a collection of fitness landscapes (doi:10.1126/science.1257360).

Sequences and labels used below:
B1: PhoQ; a variant is named by its letters at X, in order, P23837 (parent)
chain: MKKLLRLFFPLSLRVRFLLATAAVVLVLSLAYGMVALIGYSVSFDKTTFRLLRGESNLFYTLAKWENNKLHVELPENIDKQSPTMTLIYDENGQLLWAQRDVPWLMKMIQPDWLKSNGFHEIEADVNDTSLLLSGDHSIQQQLQEVREDDDDAEMTHSVAVNVYPATSRMPKLTIVVVDTIPVELKSSYMVWSWFIYVLSANLLLVIPLLWVAAWWSLRPIEALAKEVRELEEHNRELLNPATTRELTSLVRNLNRLLKSERERYDKYRTTLTDLTHSLKTPLXXLQXXLRSLRSEKMSVSDAEPVMLEQISRISQQIGYYLHRASMRGGTLLSRELHPVAPLLDNLTSALNKVYQRKGVNISLDISPEISFVGEQNDFVEVMGNVLDNACKYCLEFVEISARQTDEHLYIVVEDDGPGIPLSKREVIFDRGQRVDTLRPGQGVGLAVAREITEQYEGKIVAGESMLGGARMEVIFGRQHSAPKDE

The list shows a part of the results. Some results are limits rather than exact numbers.

Variants of B1 are the subject of this assay. In words: enrichment ratio after two sorts for PhoP signalling (ratio (wild type AVST 3.29)); higher = more functional. The settings on record: with PhoP (E. coli).
As for LVHG, the enrichment ratio is not above 0.25.
The result for DNNK reads not above 0.25.
As for QAWL, the figure is 19.9; as for RIVC, not above 0.25; as for AMCE, 67.3.
The result for PHRY reads not above 0.25; that for WVLW, not above 0.25.
Regarding DYNP, the enrichment ratio is not above 0.25.
For the variant TIDE, the enrichment ratio was not above 0.25.
As for ANPL, the figure is not above 0.25; as for DNNV, not above 0.25; as for MYFS, not above 0.25.
For KLCH, the enrichment ratio was not above 0.25.
For LHPR, the enrichment ratio is not above 0.25.
As for SEEN, the enrichment ratio is not above 0.25.
As for ISSG, the figure is not above 0.25; as for RKAV, not above 0.25; as for VWMG, not above 0.25.
The result for KEIW reads not above 0.25; that for GQWA, not above 0.25.
As for VQRR, the figure is not above 0.25.
Consider PQSC, for which the enrichment ratio is not above 0.25.
PKIH: the enrichment ratio was not above 0.25.
The result for GQSC reads not above 0.25; that for YLAW, not above 0.25.
As for IGHM, the figure is not above 0.25; as for QTPM, not above 0.25; as for SPKN, not above 0.25.
Take PKFA: the enrichment ratio is not above 0.25.
With VSVR, the enrichment ratio is not above 0.25.
The result for YRDL reads not above 0.25; that for DRFP, not above 0.25; that for NETK, not above 0.25.
As for HARP, the enrichment ratio is not above 0.25.
For the variant MFRE, the enrichment ratio is not above 0.25.
The result for ICKE reads not above 0.25; that for HRNS, not above 0.25.
The result for QTCI reads not above 0.25; that for GSCF, 11.5; that for NNHP, not above 0.25.
As for KHNH, the figure is not above 0.25.
As to QMSH, the enrichment ratio was 7.1.
As for AMLP, the figure is not above 0.25; as for IADH, not above 0.25; as for SFKW, not above 0.25.
As for VCKC, the figure is not above 0.25.
The result for FNFN reads not above 0.25; that for DHCP, not above 0.25; that for EAVS, not above 0.25.
With NEGN, the enrichment ratio is not above 0.25.
Take FQRH: the enrichment ratio was not above 0.25.
The result for NHDK reads not above 0.25; that for NLLA, not above 0.25.
For HKCR, the enrichment ratio was not above 0.25.
Consider THGR, for which the enrichment ratio was not above 0.25.
As for KYTC, the figure is not above 0.25; as for TLMI, 0.678.
The result for NGAL reads not above 0.25; that for ILEI, not above 0.25; that for PHIG, not above 0.25.
Consider NADT, for which the enrichment ratio was not above 0.25.
Take QPGF: the enrichment ratio was not above 0.25.
For the variant PNER, the enrichment ratio was not above 0.25.
For the variant QAGR, the enrichment ratio was not above 0.25.
The result for TFVL reads 0.29; that for RRLV, not above 0.25; that for TKNR, not above 0.25.
With TYTW, the enrichment ratio was not above 0.25.
Take KLHD: the enrichment ratio was not above 0.25.
The result for LPYW reads not above 0.25; that for IIYQ, not above 0.25.
Take GQCY: the enrichment ratio was not above 0.25.
The result for NYIT reads not above 0.25.
The result for FLNI reads not above 0.25.
As for ERMQ, the figure is not above 0.25; as for DVVD, not above 0.25.
For WFVR, the enrichment ratio is not above 0.25.
As to WLKN, the enrichment ratio was not above 0.25.
As for DELL, the figure is not above 0.25; as for KGQG, not above 0.25.
As to MLKK, the enrichment ratio is not above 0.25.
Consider SQVK, for which the enrichment ratio is not above 0.25.
In the case of YMES, the enrichment ratio is not above 0.25.
The result for QTAQ reads 6.08; that for GSVR, not above 0.25.
For NHLV, the enrichment ratio was not above 0.25.
Take VCWY: the enrichment ratio was not above 0.25.
Take VRCK: the enrichment ratio is not above 0.25.
The result for SCMH reads 4.11; that for GTVC, not above 0.25; that for PSKS, not above 0.25.
As to MMTA, the enrichment ratio is not above 0.25.
As for DMYI, the figure is not above 0.25.
With PKFE, the enrichment ratio was not above 0.25.
Turning to CLIC, the enrichment ratio was not above 0.25.
The result for PSEK reads not above 0.25.
As for AGAV, the figure is 1.8; as for MQRR, not above 0.25; as for WLHY, not above 0.25.
Regarding LCMS, the enrichment ratio was not above 0.25.
The result for IICN reads not above 0.25.
The result for VMAT reads not above 0.25.
As for SLME, the figure is 2.88.
Regarding NINI, the enrichment ratio is not above 0.25.
As for QKVA, the figure is not above 0.25.
Consider GKYP, for which the enrichment ratio is not above 0.25.
On to NWEF, for which the enrichment ratio is not above 0.25.
The result for DADR reads not above 0.25; that for DDNW, not above 0.25; that for NTHG, not above 0.25.
For the variant RHWD, the enrichment ratio was not above 0.25.
As for DTLS, the figure is not above 0.25; as for RCKR, not above 0.25; as for DMMS, not above 0.25.
The result for TSHV reads 13.7; that for YITM, 0.387.
In the case of KVSV, the enrichment ratio is not above 0.25.
Take TSSS: the enrichment ratio is 14.
As for WIPF, the figure is not above 0.25; as for KMSV, not above 0.25; as for AHHV, not above 0.25.
The result for ESMC reads not above 0.25; that for HPTM, not above 0.25.
The result for EGIW reads not above 0.25; that for MEIP, not above 0.25.
For HQEL, the enrichment ratio was not above 0.25.
Turning to SAIC, the enrichment ratio came out at 2.13.
The result for VYAC reads not above 0.25.
Consider YKAQ, for which the enrichment ratio is not above 0.25.
Regarding PYPM, the enrichment ratio is not above 0.25.
Turning to QGFW, the enrichment ratio was not above 0.25.
The result for KFGA reads not above 0.25.
As for GQPS, the enrichment ratio is not above 0.25.
For IHKY, the enrichment ratio was not above 0.25.
The result for DGAL reads not above 0.25; that for FDTK, not above 0.25; that for IHYR, not above 0.25.
The result for RMCT reads not above 0.25.
As for DRWI, the enrichment ratio is not above 0.25.
For DFHQ, the enrichment ratio is not above 0.25.
As for APDL, the figure is not above 0.25.
Regarding PCLG, the enrichment ratio was not above 0.25.
Take IFDC: the enrichment ratio was not above 0.25.
As for RRAC, the figure is not above 0.25; as for GPWY, not above 0.25; as for YLKR, not above 0.25.
For SLAT, the enrichment ratio is not above 0.25.
As for RPMV, the figure is not above 0.25; as for LAQE, not above 0.25.
Consider LSWM, for which the enrichment ratio amounted to 2.98.
As for KQNV, the figure is not above 0.25.
For the variant IWTK, the enrichment ratio was not above 0.25.
On to HINS, for which the enrichment ratio was not above 0.25.
